{
  "source": "patent US20230295329A1",
  "about": "(published 2023)",
  "binders": {"B1": {"name": "Hu33-6.IgG4AA (antibody)", "heavy": "KVQLVESGGGLVQPGGSLRLSCAASGFTFSSYAMSWVRQAPGKGLEWVATISGGGVDTYYQDNVQGRFTISRDNAKNSLYLQMNSLRAEDTAVYYCASPYGHGYFDVWGQGTTVTVSSASTKGPSVFPLAPCSRSTSESTAALGCLVKDYFPEPVTVSWNSGALTSGVHTFPAVLQSSGLYSLSSVVTVPSSSLGTKTYTCNVDHKPSNTKVDKRV[here human IgG4 Fc with S228P F234A L235A (EU numbers) without letters]", "light": "DIQMTQSPSSLSASVGDRVTITCRASQDINNFLNWYQQKPGKAPKLLIYYTSSLHSGVPSRFSGSGSGTDYTLTISSLQPEDFATYYCQQGNTLPWTFGGGTKVEIKRTVAAPSVFIFPPSDEQLKSGTASVVCLLNNFYPREAKVQWKVDNALQSGNSQESVTEQDSKDSTYSLSSTLTLSKADYEKHKVYACEVTHQGLSSPVTKSFNRGEC", "notes": "Full-length IgG4-AA (S228P, F234A, L235A) antibody with kappa light chain"}},
  "molecular_target": "T1, PD-1-His protein (Cat. #10377H08H, Sino Biological) (human, UniProt Q15116 fragment)",
  "T1 construct": "Bought reagent; also called huPD-1-his; hu PD-1-his; not shown: His tag of the bought protein",
  "T1 sequence (Q15116 25-167 limits assumed)": "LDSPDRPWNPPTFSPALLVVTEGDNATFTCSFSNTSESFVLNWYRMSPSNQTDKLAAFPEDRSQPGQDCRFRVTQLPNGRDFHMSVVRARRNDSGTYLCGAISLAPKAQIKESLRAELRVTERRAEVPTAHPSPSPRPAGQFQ",
  "experiment": "ELISA, PD-1-His coated, HRP goat anti-human IgG detection",
  "data": [
    {"binder": "B1", "values": [
      {"measurement": "OD value MAX", "result": 1.71}
    ]}
  ]
}
